In US20260201058A1 (SICHUAN HUIYU PHARMACEUTICAL, published 2026):

What was measured:
[1] = biological target: T1, hFc-tagged human MSLN recombinant protein (huMSLN-hFc, Kactus Biosystems, MSL-HM280) (human, UniProt Q13421 296-580); assay: Carterra HC200M chip, antibody captured via anti-human IgG Fc, 1:1 model
T1 construct: Bought protein; also called huMSLN-Fc; human MSLN-Fc

[2] = biological target: T2, human PD-L1 protein (ACRO, PD1-H5258) (human, UniProt Q9NZQ7 part only); assay: as above
T2 construct: Bought protein; also called Human PDL1-Fc

[3] = biological target: T3, human CD3εγ (acrobiosystems, CDG-H52W5) (human, UniProt P07766 23-126; P09693 23-116); assay: as above
T3 construct: Bought protein

[4] = biological target: CD3 on human Jurkat cells (ATCC TIB-152) (human); assay: flow cytometry on Jurkat cells

T3 sequence (P07766 23-126, chain 1 of 2): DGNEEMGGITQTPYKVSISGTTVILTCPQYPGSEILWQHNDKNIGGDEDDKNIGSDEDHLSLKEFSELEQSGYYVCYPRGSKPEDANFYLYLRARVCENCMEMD
T3 sequence (P09693 23-116, chain 2 of 2, further chain): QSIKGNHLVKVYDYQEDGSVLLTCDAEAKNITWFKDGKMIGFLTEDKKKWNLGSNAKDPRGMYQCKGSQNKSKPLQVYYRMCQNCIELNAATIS
T2 sequence (Q9NZQ7 19-238): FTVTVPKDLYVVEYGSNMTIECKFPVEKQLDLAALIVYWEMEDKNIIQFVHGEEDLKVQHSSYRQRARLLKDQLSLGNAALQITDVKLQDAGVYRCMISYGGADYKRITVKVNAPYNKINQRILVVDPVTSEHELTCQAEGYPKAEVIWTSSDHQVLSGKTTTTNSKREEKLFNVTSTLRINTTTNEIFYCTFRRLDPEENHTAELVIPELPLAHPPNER
T1 sequence (Q13421 other isoform, or with tags, fused parts or gaps): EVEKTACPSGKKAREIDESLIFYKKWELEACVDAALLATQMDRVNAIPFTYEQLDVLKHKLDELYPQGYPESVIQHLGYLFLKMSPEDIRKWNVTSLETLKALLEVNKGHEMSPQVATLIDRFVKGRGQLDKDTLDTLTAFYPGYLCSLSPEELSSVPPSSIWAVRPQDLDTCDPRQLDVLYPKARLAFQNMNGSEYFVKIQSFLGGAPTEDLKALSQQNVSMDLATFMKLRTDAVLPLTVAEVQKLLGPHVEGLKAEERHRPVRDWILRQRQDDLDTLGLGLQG

B1: CD3-PDL1-MSLN trispecific antibody 5Y3-14 (other)
light: [omitted - about 100 residues][omitted - about 100 residues]
heavy: EVQLVESGGGLVQPGGSLRLSCAASGFTFNTYAMNWVRQAPGKGLEWVARIRSKYNNYATYYADSVKGRFTISRDDSKSILYLQMNSLKTEDTAMYYCVRHERFGNSYVSWFAYWGQGTLVTVSSASTKGPSVFPLAPSSKSTSGGTAALGCLVKDYFPEPVTVSWNSGALTSGVHTFPAVLQSSGLYSLSSVVTVPSSSLGTQTYICNVNHKPSNTKVDKKVEPKSCDKTHTCPPCPAPEAAGAPSVFLFPPKPKDTLMISRTPEVTCVVVDVSHEDPEVKFNWYVDGVEVHNAKTKPREEQYNSTYRVVSVLTVLHQDWLNGKEYKCAVSNKALPAPIEKTISKAKGQPREPQVYTLPPSRDELTKNQVSLWCLVKGFYPSDIAVEWESNGQPENNYKTTPPVLDSDGSFFLYSKLTVDKSRWQQGNVFSCSVMHEALHNHYTQKSLSLSPGGGGGSGGGGSGGGGSEVQLVESGGGLIQPGGSLRLSCAASGNIGSIRHMGWVRQAPGKERELVATITTVGTTYYANFVKGRFTISRDNSKNTLYLQMNSLRAEDTAVYYCRATAHPTDYWGQGTLVTVSS
chain: EVQLVESGGGLIQPGGSLRLSCAASGNIGSIRHMGWVRQAPGKERELVATITTVGTTYYANFVKGRFTISRDNSKNTLYLQMNSLRAEDTAVYYCRATAHPTDYWGQGTLVTVSSGGGGSDKTHTCPPCPAPEAAGAPSVFLFPPKPKDTLMISRTPEVTCVVVDVSHEDPEVKFNWYVDGVEVHNAKTKPREEQYNSTYRVVSVLTVLHQDWLNGKEYKCAVSNKALPAPIEKTISKAKGQPREPQVYTLPPSRDELTKNQVSLSCAVKGFYPSDIAVEWESNGQPENNYKTTPPVLDSDGSFFLVSKLTVDKSRWQQGNVFSCSVMHEALHNHYTQKSLSLSPGGGGGSGGGGSGGGGSEVQLLESGGGLVQPGGSLRLSCAASGRTFSSYVMGWFRQAPGKEREFVSAISRAGSTYSADSVKGRFTISRDNSKNTLYLQMNSLRAEDTAVYYCAAGSSPTAIFGKSGMDYWGQGTQVTVSS
notes: Trispecific, three chains, structure as for 5Y3-1
Kd [1]: 8.38 nM | Kd [2]: 128 nM | Kd [3]: 257 nM | EC50 [4]: 9.31 nM

B2: CD3-PDL1-MSLN trispecific antibody 5Y3-15 (other)
light: [omitted - about 100 residues][omitted - about 100 residues]
heavy: EVQLVESGGGLVQPGGSLRLSCAASGFTFNTYAMNWVRQAPGKGLEWVARIRSKYNNYATYYADSVKDRFTISRDDSKSSLYLQMNNLKTEDTAMYYCVRHGNFGNTYVSWFAMWGQGTLVTVSSASTKGPSVFPLAPSSKSTSGGTAALGCLVKDYFPEPVTVSWNSGALTSGVHTFPAVLQSSGLYSLSSVVTVPSSSLGTQTYICNVNHKPSNTKVDKKVEPKSCDKTHTCPPCPAPEAAGAPSVFLFPPKPKDTLMISRTPEVTCVVVDVSHEDPEVKFNWYVDGVEVHNAKTKPREEQYNSTYRVVSVLTVLHQDWLNGKEYKCAVSNKALPAPIEKTISKAKGQPREPQVYTLPPSRDELTKNQVSLWCLVKGFYPSDIAVEWESNGQPENNYKTTPPVLDSDGSFFLYSKLTVDKSRWQQGNVFSCSVMHEALHNHYTQKSLSLSPGGGGGSGGGGSGGGGSEVQLVESGGGLIQPGGSLRLSCAASGNIGSIRHMGWVRQAPGKERELVATITTVGTTYYANFVKGRFTISRDNSKNTLYLQMNSLRAEDTAVYYCRATAHPTDYWGQGTLVTVSS
chain: EVQLVESGGGLIQPGGSLRLSCAASGNIGSIRHMGWVRQAPGKERELVATITTVGTTYYANFVKGRFTISRDNSKNTLYLQMNSLRAEDTAVYYCRATAHPTDYWGQGTLVTVSSGGGGSDKTHTCPPCPAPEAAGAPSVFLFPPKPKDTLMISRTPEVTCVVVDVSHEDPEVKFNWYVDGVEVHNAKTKPREEQYNSTYRVVSVLTVLHQDWLNGKEYKCAVSNKALPAPIEKTISKAKGQPREPQVYTLPPSRDELTKNQVSLSCAVKGFYPSDIAVEWESNGQPENNYKTTPPVLDSDGSFFLVSKLTVDKSRWQQGNVFSCSVMHEALHNHYTQKSLSLSPGGGGGSGGGGSGGGGSEVQLLESGGGLVQPGGSLRLSCAASGRTFSSYVMGWFRQAPGKEREFVSAISRAGSTYSADSVKGRFTISRDNSKNTLYLQMNSLRAEDTAVYYCAAGSSPTAIFGKSGMDYWGQGTQVTVSS
notes: as for B1
Kd [1]: 8.21 nM | Kd [2]: 133 nM | Kd [3]: 276 nM | EC50 [4]: 11.9 nM
